Measured values as given in PubChem BioAssay AID686978 (National Center for Advancing Translational Sciences (NCATS), 2013).
Among all 420,000 compounds or so, about 64,000 (15%) were called active. The inconclusive results got no clear call from the source; some entries with a clear call stand among them for comparison. Calls come from the whole dose curve; as a rule, active = well fitted inhibition curve with a large enough effect; inconclusive = small, poorly fitted or top-dose-only effect; inactive = flat fitted curve, though single readings scatter. Potencies of inconclusive entries are left out as doubtful fits.

Experiment: qHTS for Inhibitors of human tyrosyl-DNA phosphodiesterase 1 (TDP1): qHTS in cells in absence of CPT; note: nearly all actives have a fitted effect of over 55% in size
Conditions: DT40 Tdp1-/- hTDP1 cells, no CPT, ATP luminescence, 48 h; activity change, negative = growth inhibition: at 46.2 µM (top of the series) unless noted
Outline: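 Compound effects on proliferation are scored in DT40 Tdp1-/-;hTDP1 cells in the absence of CPT. ATP levels (CellTiter-Glo luminescence) are recorded after a ≥48 hr, 37 °C incubation.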
% is set by controls: 0 for no effect and ±100 for the full control effect; potency is the fitted concentration of half-maximal effect; tags give direction and shape of the fitted curve.

Compound | Potency | activity change, negative = growth inhibition
COc1ccc(C2CC(C(F)(F)F)n3nc(C(N)=O)c(Cl)c3N2)cc1OC (stereo unspecified) | inconclusive [inhibitor, partial curve] | –
O=[N+]([O-])c1cc(-c2cnc3ccccc3n2)ccc1Oc1ccc(Cl)cc1 | inconclusive [inhibitor, single point] | –
CCOC(=O)C1=C(CN2CCSCC2)NC(=O)NC1c1cc(C)ccc1C (stereo unspecified) | inconclusive [inhibitor, partial curve] | –
COc1ccccc1CNC(=O)COc1ccc(S(=O)(=O)N2CCCC2)cc1 | inconclusive [inhibitor, single point] | –
Cc1nc2ccc(NC(=O)Cc3ccc4c(c3)OCCO4)cc2s1 | inconclusive [inhibitor, single point] | –
CC(=O)c1c(C)[nH]c(C(=O)CSc2nc3ccccc3c(=O)n2CCCN2CCOCC2)c1C | – | inconclusive: -30.1% [inhibitor]
CCOC(=O)c1c(C)[nH]c(/C(C)=N/NC(=O)c2cccnc2)c1C | inconclusive [inhibitor, single point] | –
NC(=S)N=Nc1c(O)[nH]c2ccc(F)cc12 | inconclusive [inhibitor, single point] | –
C=CCn1c(SCC(=O)c2ccc(O)c(O)c2)nnc1-c1ccc(OC)cc1 | active: 16.4 µM | –
CCCCNC(=O)C1(C)CCCCN1Cc1ccccc1-c1ccccc1 (stereo unspecified) | inconclusive [inhibitor, single point] | –
CC(C)c1ccc(/C=C(\C#N)c2nc(-c3cc4ccccc4oc3=O)cs2)cc1 | – | inactive: 3.29%
O=CC1=C(c2ccccc2)Oc2ccccc2O1 | inconclusive [inhibitor, single point] | –
COC(=O)c1ccc(Nc2ncnc3c2cnn3-c2ccccc2)cc1 | – | inactive: -6.57%
CC(C)(C)c1ccc(C(=O)NC(=S)N2CCCC2)cc1 | inconclusive [inhibitor, single point] | –
Fc1ccc(N=c2ssnc2Cl)c(F)c1 | active: 9.2 µM | –
CCc1ccc(NC(=O)CSc2nc(C)cs2)cc1 | inconclusive [inhibitor, partial curve] | –
COc1cc(Cl)c(C)cc1NS(=O)(=O)c1c(C)nc2sccn2c1=O | inconclusive [inhibitor, single point] | –
COc1ccc(C2=C(C)C(=O)N(Cc3ccc(C(=O)Nc4ccc(C)c(C)c4)cc3)S2(=O)=O)cc1 | inconclusive [inhibitor, full curve, poor fit] | –
CC(Sc1nnc(NCc2ccccc2)s1)C(=O)Nc1ccc2c(c1)C(=O)c1ccccc1C2=O (stereo unspecified) | active: 18.4 µM | –
O=C(NCc1ccccc1F)C(=O)NCC1CCCN1S(=O)(=O)c1ccccc1 (stereo unspecified) | inconclusive [inhibitor, partial curve] | –
O=C(Nc1cccnc1)c1ccc(Br)s1 | inconclusive [inhibitor, partial curve, poor fit] | –
CCOc1ccccc1NC(=O)C1=C(C)Nc2ncnn2C1c1ccccn1 (stereo unspecified) | – | inactive: 0.157%
COc1ccc(/C=C/C(=O)OCC(=O)NC2CCCC(C)C2C)cc1 (stereo unspecified) | – | inactive: -29.1%
CC(=O)N1CCC(C(=O)Nc2cc(C)cc(C)c2)CC1 | – | inactive: -11.2%

Compound | Potency | activity change, negative = growth inhibition
COCCN=c1scc(-c2ccccc2)n1/N=C/c1c[nH]c2ccccc12 | inconclusive [inhibitor, single point] | –
C=CCN1C(=O)CSc2ccc(C(=O)NCc3cccs3)cc21 | inconclusive [inhibitor, single point] | –
COc1ccc(NC(=O)CN(c2ccccc2OC)S(C)(=O)=O)c(OC)c1 | – | inactive: -13.4%
O=c1cnc2cncnc2n1Cc1ccccc1 | active: 7.31 µM | –
Cc1cc2ccccc2nc1SCC(=O)Nc1nc(-c2ccccc2)cs1 | inconclusive [inhibitor, single point] | –
Cc1nnsc1Sc1ccccc1 | – | inactive: 0.221%
Cc1cccc(C(=O)Nc2sc(C)c(-c3ccccc3)c2C#N)c1 | inconclusive [inhibitor, single point] | –
COc1ccc(S(=O)(=O)N2CCC(C(=O)Nc3ccc(OC)c(OC)c3)CC2)cc1C | – | inactive: -17.5%
COc1cc(NC(=O)CCc2c(C)nc3c4c(C)cc(C)nc4nn3c2C)cc(OC)c1 | inconclusive [inhibitor, partial curve] | –
CC(C)n1ncc2c(C(=O)N3CCN(Cc4ccc(Cl)s4)CC3)cc(C3CC3)nc21 | inconclusive [inhibitor, single point] | –
Cc1c(C)n(-c2ccc(Cl)cc2)c2ncnc(N)c12 | inconclusive [inhibitor, partial curve] | –
COc1nc(C)ccc1-c1noc(-c2cccs2)n1 | – | inactive: 9.19%
c1ccc(C2Nc3ccccc3C3OCCCC23)cc1 (stereo unspecified) | inconclusive [inhibitor, partial curve] | –
O=C1c2[nH]nc(-c3ccccc3O)c2C(c2ccc(Cl)cc2)N1CCc1ccccc1 (stereo unspecified) | active: 16.4 µM | –
CCOC(=O)c1c(C)oc2c1c(C(c1ccccc1)N1CCOCC1)c(O)c1ccccc12 (stereo unspecified) | active: 18.4 µM | –
O=C(COC(=O)CC1CCCCC1)Nc1c(Cl)cccc1Cl | – | inactive: 19.5%
CC(C)c1ccc(NC(=O)C(NS(=O)(=O)c2ccc3c(c2)CCC(=O)N3)c2ccccc2)cc1 (stereo unspecified) | inconclusive [inhibitor, full curve] | –
CCOc1ccccc1Nc1ncnc2c1c(-c1ccccc1)cn2-c1ccc(OC)cc1 | inconclusive [inhibitor, single point] | –
CCOCN(C(=O)Cn1c(CC(C)C)nc2ccccc21)c1c(C)cccc1CC | active: 23.1 µM | –
COc1cc(OC)cc(-c2cc3nc(C)c(CCC(=O)Nc4ccc(F)c(Cl)c4)c(C)n3n2)c1 | active: 16.4 µM | –
CC(=O)NC(Cc1ccccc1C)C(=O)NC1CCN(c2nnnn2-c2ccccc2)CC1 (stereo unspecified) | inconclusive [inhibitor, partial curve, poor fit] | –
Cn1ccnc1SCC(=O)Nc1ccc(Oc2ccccc2)cc1 | inconclusive [inhibitor, single point] | –
O=[N+]([O-])c1ccc2c(c1)C(=NO)c1cc(F)ccc1-2 | active: 11.6 µM | –
Cc1ccc(OCC(=O)NNC(=O)c2ccccc2OCc2c(C)noc2C)cc1 | – | inactive: -19.4%

Compound | Potency | activity change, negative = growth inhibition
COc1ccc2c(=O)c(C(=O)NCc3ccccc3)c[nH]c2c1 | inconclusive [inhibitor, single point] | –
COc1ccc(S(=O)(=O)N2CCC(C(=O)NCc3ccncc3)CC2)cc1C | – | inactive: -15.4%
CCn1c(=NC(=O)CN2C(=O)CCC2=O)sc2c(C)cc(C)cc21 | inconclusive [inhibitor, single point] | –
COc1cccc(CN2CCN(C(=O)Nc3ccc([N+](=O)[O-])cc3)CC2)c1 | inconclusive [inhibitor, partial curve] | –
Cc1cccc(-c2nnc(SCC#N)n2Cc2ccccc2)c1 | – | inactive: 3.38%
CCOC(=O)/C(C#N)=C1/C=C(C)NC(c2ccccc2O)=N1 | active: 20.6 µM | –
CCc1ccc(NC(=O)N(Cc2cn(CC)c3ccccc23)C2CCCCC2)cc1 | active: 11.6 µM | –
CCOC(=O)C1(CCCc2ccccc2)CCN(C(=O)CSC)CC1 | inconclusive [inhibitor, single point] | –
Cc1c(Cl)cccc1NC(=O)C(C)N(c1ccccc1)S(C)(=O)=O (stereo unspecified) | inconclusive [inhibitor, single point] | –
CC1CCC(N2CCN(C(=O)c3ccccc3F)CC2)CC1 (stereo unspecified) | – | inactive: -2.93%
Cc1cc(C)cc(NC(=O)c2ncn(-c3ccccc3)n2)c1 | inconclusive [inhibitor, single point] | –
Cc1cccc(NC(=O)c2ccc(S(=O)(=O)N(C)C)cc2)c1 | inconclusive [inhibitor, single point] | –
Cc1nc2ccc([N+](=O)[O-])cc2c(=O)n1Cc1cccc(F)c1 | inconclusive [inhibitor, single point] | –
O=C(CSCc1cnn(-c2ccccc2)c1-n1cccc1)NCc1ccccc1Br | inconclusive [inhibitor, single point] | –
COc1ccc(COC(=O)c2cccc(S(=O)(=O)N3CCCC3)c2)cc1F | – | inactive: 12.7%
O=C(CSc1nc(-c2cccs2)cc(C(F)(F)F)n1)NCc1ccco1 | inconclusive [inhibitor, partial curve, poor fit] | –
CCCNC(=O)C(Cc1ccc(Cl)cc1)NC(=O)c1ccc(C#N)cc1 (stereo unspecified) | inconclusive [inhibitor, single point] | –
O=S(=O)(c1ccccc1)c1nc(-c2ccccc2)oc1N1CCN(c2cccc(Cl)c2)CC1 | inconclusive [inhibitor, partial curve, poor fit] | –
O=[N+]([O-])c1ccc2c(c1)nc1n2CCN(c2ccccc2)C1 | inconclusive [inhibitor, single point] | –
CN(C(=O)C1CCC(=O)N(CCCN2CCCC2=O)C1)C(C1CC1)C1CC1 (stereo unspecified) | – | inactive: 3.62%
Cc1ccc(C(=O)N(c2ccccc2)C2CC(C)N(C(=O)c3ccco3)c3ccccc32)cc1 (stereo unspecified) | active: 4.61 µM | –
COc1ccc([C@H]2C[C@H](n3cc(COC(=O)c4ccccc4)nn3)[C@@H](O)CN2C(=O)C2CCCCC2)cc1 | – | inactive: -0.381%
CCOC(=O)c1c(C)[nH]c(C)c1S(=O)(=O)N1CCN(c2ccc(Cl)cc2)CC1 | inconclusive [inhibitor, single point] | –
